Reference: PubChem BioAssay AID1508642 (National Center for Advancing Translational Sciences (NCATS), 2021)
Hit rate of the full screen: of about 43,000 compounds, about 200 (0.47%) were called active. Not shown: some 12% with an inconclusive outcome. Calls follow the shape of the dose curve; as a rule, active = well fitted cell-killing curve with a large enough effect; inconclusive = small, poorly fitted or top-dose-only effect, or effect the other way; inactive = flat fitted curve, though single readings scatter. Some of the results follow.

Assay: Cell viability qHTS assay in S16 Pmp22-F2sN cells; also: nearly all actives have a fitted effect of over 65% in size
Conditions: S16 Pmp22-F2sN Schwann cells (luciferase reporters placed in the Pmp22 gene) viability, CellTiter-Glo, 24 h; series mostly up to 57.5 µM; activity change, negative = cytotoxicity: at the top concentration
From the text: Assay Provider: Jim Inglese Ph.D. National Center for Advancing Translational Science, National Institutes of Health, Rockville, MD CMT is a heterogeneous group of neurological disorders that affect approximately 1 in 2,500 people. In particular, the most common form of CMT, CMT1A is genetically linked to the duplication of the PMP22 gene which leads to Schwann cell overexpression, thus manifesting itself as a typical case of dose-sensitive diseases. To identify small molecule compounds that can mediate the expression of PMP22 we developed a phenotypic assay screening strategy by utilizing genome editing techniques to construct Schwann cell lines containing novel reporter technology to monitor the transcriptional or translational regulation of PMP22. For high sensitivity we use a bioluminescent reporter system embedded in the 3' UTR of the PMP22 gene (S16(c9) Pmp22-F2sN) to identify compounds that inhibit gene expression. […] We can further discriminate the effect of all transcriptionally active molecules on PMP22 translation or stability with an assay that incorporates a short NLuc peptide (HiBiT) at the C-terminus of expressed PMP22 (S16(f8) PMP22-HiBiT) allowing alpha complementation and luminescence detection of membrane-associated PMP22 protein. These assays were screened against the NCATS Sytravon Library Collection. Miniaturization of these assays to 1536-well plate format for quantitative high throughput screening (qHTS) yielded rich data sets immediately from the qHTS assay (S16(c9) Pmp22-F2sN), when compared with data from a cell viability assay (Cell TiterGlo) to identify compounds that decreased the output signals through cellular toxicity to streamline the selection process of actives for subsequent characterization using the HiBiT assay (S16(f8) PMP22-HiBiT).
Cell viability assay in S16 Pmp22-F2sN cells PROTOCOL TABLE (format as described by Inglese J, Shamu CE and Guy RK. 2007) SEQUENCE No. (e.g., 1, 2, 3, etc.); […] (e.g., Cells, Incubation, Reagent, etc.); VALUE and DESCRIPTION. 1. Cells. Add 500-1,000 cells in 4 uL in growth media (DMEM High Glucose, No Phenol Red media + 10% heat-inactivated FBS + 1% Pen/Strep supplemented media) per well into Greiner 1536-well white/solid bottom high base, TC-treated plates. 2. Compounds. Library compounds and controls added at 23nL per well, transferred by Pin Tool. 3. Incubation. Incubate plates at 37C, 5% CO2, 95% RH for 24 h. 4. Reagent. Add 3uL CellTiter-Glo per well of Greiner 1536-well plates. 5. Incubation. Incubate plates at room temperature for 15 min., protect from light. 6. Detector. FLuc luminescence measured using CCD-based camera (Viewlux). NOTES (numbers refer to Sequence numbers above; values are from representative experiments) 6. Luminescence Read: Clear filter; Exposure = 1 sec, Gain = High, Speed = Slow, Binning = 2X REFERENCES: 1. Inglese J, Shamu CE and Guy RK, Reporting data from high throughput screening of small molecule libraries, Nature Chemical Biology, 2007, 3(8): 438-441. doi.org/10.1038/nchembio0807-438 2. Yasgar A, Shinn P, Jadhav A, Auld DS, Michael S, Zheng W, Austin CP, Inglese J and Simeonov A, Compound Management for Quantitative High-Throughput Screening. J. Assoc. Lab. Auto., 2008, 13: 79-89. doi: 10.1016/j.jala.2007.12.004
% is scaled to controls: 0 for no effect and ±100 for the full control effect.

Compound	activity change, negative = cytotoxicity
Cc1cc(=O)n2nc(N3CCC(C(=O)NCc4ccc(F)cc4)CC3)sc2n1	inactive: 3.13%
COc1ccc(Nc2ncc(C(=O)N3CCN(c4ccc(F)cc4)CC3)c3ccccc23)cc1	inactive: -6%
COc1ccc(C)cc1N(C)C(=O)c1c2c(nc3ccccc13)C(=O)N(C1CCCCC1)C2	inactive: -15.2%
Cc1noc(Cn2c(=O)c3cc4c(cc3n(CC(=O)Nc3ccccc3Br)c2=O)OCO4)n1	inactive: -3.29%
O=C(Nc1sc2c(c1C(=O)N1CCCCC1)CCCC2)c1ccccc1Cl	inactive: -24.2%
COc1ccc(NC(=O)CNC(=O)Cn2c(C)cc3ccccc3c2=O)cc1OC	inactive: 1.04%
CN(C)c1ccc(CNC(=O)CCS(=O)(=O)c2ccc3c(c2)oc(=O)n3C)cc1	inactive: -1.25%
O=C(CN1C(=O)CCc2cc(S(=O)(=O)N3CCOCC3)ccc21)Nc1cccc(C(F)(F)F)c1	inactive: -5.66%
Cc1ccc2c(=O)cc(C(=O)Nc3sc4c(c3C(=O)NCc3ccccc3)CCCC4)oc2c1C	inactive: 10.9%
CCCCCCOc1ccc(C2C(=O)N(C3CCCCC3)CC(=O)N2CCCC)cc1 (stereo not given)	inactive: -17.3%
CCOc1cccc(C(=O)Nc2cc(-c3ccc(C)cc3)no2)c1	inactive: -8.27%
CCCS(=O)(=O)N1CCCC(C(=O)NCCOC)C1 (stereo not given)	inactive: -20.4%
CCCCN(CCCC)C1=C(C(=O)c2ccccc2)N(C)S(=O)(=O)c2ccccc21	inactive: -8.03%
Cc1ccccc1CNC(=O)CN(c1cccc(C)c1C)S(C)(=O)=O	inactive: -0.0002%
O=C(CSc1cn(CC(=O)N2CCOCC2)c2ccccc12)Nc1ccccc1	inactive: 6.27%
O=C(COCc1cc(-c2ccc3c(c2)OCO3)on1)NCc1ccccc1Cl	inactive: 3.59%
O=C(Nc1c(C(=O)O)oc2ccccc12)c1ccc(C(F)(F)F)cc1	inactive: -3.59%
CC1=C(c2ccc(C)c(C)c2)S(=O)(=O)N(Cc2ccc(C(=O)NC(C)c3ccccc3)cc2)C1=O (stereo not given)	inactive: -2.63%
Cc1ccccc1Cc1c(C)nc2nc(SCC(=O)NCCc3ccc(Cl)cc3)nn2c1C	inactive: -28.9%
O=C(COc1ccccc1)Nc1ccccc1OCc1cc(=O)n2ccccc2n1	inactive: 3.92%
COc1ccccc1OCC(=O)NCc1nc(-c2ccc(Cl)cc2)no1	inactive: -0.893%
CCOc1ccc(C(=O)Nc2ccc(S(=O)(=O)Nc3nc(C)cc(C)n3)cc2)cc1OC	inactive: -2.96%
COCCCNC(=O)CSc1nc2cc3c(cc2c(=O)n1CCCC(=O)NCc1ccc(OC)cc1)OCO3	inactive: 1.68%
Cn1c(=O)c2c(nc(Oc3ccccc3)n2Cc2c(Cl)cccc2Cl)n(C)c1=O	inactive: -2.59%

Compound	activity change, negative = cytotoxicity
O=C(COc1ccccc1[N+](=O)[O-])Nc1cccc(-c2nc3ccccc3s2)c1	inactive: -2.46%
COc1ccc(N(CC(=O)Nc2cc(C)ccc2C)S(=O)(=O)c2ccc(OC)c(OC)c2)cc1	inactive: -12.1%
CCc1ccc(C2c3c(oc4ccc(F)cc4c3=O)C(=O)N2c2nc(C)c(C(=O)OC)s2)cc1 (stereo not given)	inactive: -5.37%
COc1cc(NC(=O)CSc2nc3nc(C)c(Cc4ccc(C)cc4)c(C)n3n2)cc(OC)c1OC	inactive: -5.62%
O=C(Nc1ccc(F)cc1F)c1ccc2c(O)c(S(=O)(=O)c3ccc(Cl)cc3)c(=O)[nH]c2c1	inactive: 5.05%
CCOc1ccc(NC(=O)CN2C(=O)COc3ccc(S(=O)(=O)NC4CCCC4)cc32)cc1	inactive: -6.31%
COC(=O)c1sccc1S(=O)(=O)N(CC(=O)Nc1c(C)cccc1C)c1ccc(C)c(C)c1	inactive: -11.8%
COc1ccc2c(c1)c(=O)c(S(=O)(=O)c1ccc(C)cc1)cn2Cc1ccccc1C	inactive: 5.6%
CCOC(=O)N1CCc2c(sc3c2c(=O)n(Cc2ccccc2)c(=O)n3CC(=O)Nc2ccc(C)c(C)c2)C1	inactive: 11.2%
CCC(C(=O)Nc1cc(F)ccc1F)n1nc(-c2cc(C)ccc2C)ccc1=O (stereo not given)	inactive: 10.9%
COC(=O)C(C)n1nnc2sc(-c3ccccc3)cc2c1=O (stereo not given)	inactive: -0.965%
Cc1ccc(NC(=O)CCC(=O)N2CCSc3ccccc32)cc1Cl	inactive: -3.44%
COc1ccc(Br)cc1C(=O)Nc1ccc(-c2nc3cc(Cl)ccc3o2)cc1	inactive: 1.05%
Cc1c(NC(=O)c2cccc3c(Cl)cccc23)cccc1-c1nc2ccccc2o1	inactive: 4.41%
O=C(CCS(=O)(=O)c1cc(Br)cc2c1N(C(=O)C1CC1)CC2)NCc1ccccc1Cl	inactive: 2.42%
CC1=C(C(=O)NCc2ccccc2C)C2(CCCCC2)OC1=O	inactive: 14.7%
Cc1c(NC(=O)C(C)(C)Oc2ccc(Cl)cc2)cccc1-c1nc2ncccc2o1	inactive: -0.702%
CC(=O)c1ccc(NC(=O)Cn2cc(S(=O)(=O)Cc3ccccc3Cl)c3ccccc32)cc1	inactive: 4.72%
Cc1c(Cl)cccc1NC(=O)Nc1nnc(N(C)Cc2ccccc2)s1	inactive: -3.06%
Cc1ccc(NC(=O)c2c(C)oc3nc(C)nc(N4CCCC4)c23)c(C)c1	inactive: 5.31%
CC(Sc1cn(CCNC(=O)c2ccccc2F)c2ccccc12)c1ccccc1 (stereo not given)	inactive: -6.62%
CCC(C(=O)Nc1ccccc1OC)n1nc(C)c2sc3ccccc3c2c1=O (stereo not given)	inactive: -7.22%
Cc1ccc(C)c(OCC(=O)Nc2ccc(S(=O)(=O)Nc3onc(C)c3C)cc2)c1C	inactive: -2.26%
O=S(=O)(c1ccc(F)cc1)N(Cc1nc(-c2ccc(Cl)cc2)no1)C1CCCCC1	inactive: -1.04%

Compound	activity change, negative = cytotoxicity
COc1ccc(C)cc1NC(=O)Cn1c(=O)ccc2cc(S(=O)(=O)N3CCC(C)CC3)ccc21	inactive: -19.9%
CCOc1ccc(CCNC(=O)c2ccc(CS(=O)Cc3cccc(Cl)c3)o2)cc1 (stereo not given)	inactive: -2.12%
COC(=O)c1ccc(NC(=O)CSc2ncc3c(n2)-c2cc(Cl)ccc2N(Cc2ccccc2)S3(=O)=O)cc1	inactive: -27.9%
Cc1ccc2c(=O)c(C(=O)c3ccc(Cl)cc3)cn(CC(=O)NC3CCCCC3)c2n1	inactive: -1.4%
CSc1ccc(CCNC(=O)CN2C(=O)c3cccnc3Oc3ccc(Cl)cc32)cc1	inactive: 1.74%
O=C(CSc1nc(-c2cccs2)nc2cc(=O)[nH]n12)Nc1ccccc1F	inactive: -1.25%
CCOc1ccc(CCNC(=O)CSc2cc(=O)n(C)c3cc(Cl)ccc23)cc1OCC	inactive: -12.2%
CCCCn1c(NCc2cc(Cl)ccc2O)nc2ccccc21	inactive: 22.8%
CCCC1=Nc2cc(C(=O)NCCc3ccccc3)ccc2Sc2ccc(C)cc21	inactive: -2.45%
COc1ccccc1NC(=O)NCc1cccn1Cc1ccccc1	inactive: 18.5%
Cc1cc(Br)ccc1NC(=O)c1ccc(NS(=O)(=O)c2c(C)noc2C)cc1	inactive: 14.8%
COc1ccc(NC(=O)Cn2cnc3ccc(S(=O)(=O)N4CCC(C)CC4)cc3c2=O)cc1OC	inactive: 7.3%
COc1cccc(-c2nc(SCC(=O)NC3CCCC3)c(-c3ccccc3)[nH]2)c1	inactive: -0.153%
CCOc1ccc(-c2nc(SCC(=O)NC3CCCC3)c(-c3ccccc3)[nH]2)cc1OC	inactive: 1.43%
COc1ccc(-c2cnn3c(C)cc(C)nc23)cc1OC	inactive: -17.9%
COc1ccccc1CNC(=O)CCC1N=C2c3ccccc3N=C(SCc3ccc(C)cc3)N2C1=O (stereo not given)	inactive: -21.6%
COC(=O)c1c(NC(=O)Nc2ccc(Cl)cc2)sc(C)c1C	inactive: -5.13%
CC(=O)c1cc(-c2ccccc2)n(CCC(=O)Nc2ccc(C)cc2C)c1C	inactive: 5.2%
COc1ccc(N2CC(NC(=O)c3cc4ccccc4o3)CC2=O)cc1 (stereo not given)	inactive: -0.134%
Cc1ccc2c(c1)N(C(=O)Nc1cccc(C)c1C)CCO2	inactive: -1.48%
CS(=O)(=O)N1CCc2cc(C(=O)N3CCN(c4ccccc4)CC3)ccc21	inactive: -5.67%
CCCc1nnc(NC(=O)c2cc(=O)c3cc(Cl)ccc3o2)s1	inactive: 3.53%
COc1ccc(CCC(=O)NCCc2csc(-c3ccc(C(F)(F)F)cc3)n2)cc1	inactive: -2.5%
COc1cccc(N2CCN(c3ncnc4onc(-c5ccc(F)cc5)c34)CC2)c1	inactive: -1.63%

Compound	activity change, negative = cytotoxicity
CCOC(=O)c1cc(S(=O)(=O)N2CCN(c3ccc(C)cc3C)CC2)[nH]n1	inactive: 10.7%
Cc1ccc(C)c(NC(=O)CSC2=Nc3ccccc3N=C(c3ccc(F)cc3)C2)c1	inactive: -2.61%
O=C(CCCCCn1c(=O)[nH]c2ccccc2c1=O)NCc1ccccc1	inactive: 4.49%
O=C(C1CCCN(S(=O)(=O)c2cccc3nsnc23)C1)N1CCN(c2ccccc2Cl)CC1 (stereo not given)	inactive: -15.6%
Cc1cccc(N(C)c2ccc3cc(S(=O)(=O)N4CCCC4)ccc3n2)c1	inactive: -16.9%
Cc1ccc2c(c1)c(N1CCCC1=O)c(C(=O)Nc1ccc(F)cc1F)n2C	inactive: 4.86%
CCC(=O)N1CCc2cc(S(=O)(=O)NC(Cc3ccccc3)C(=O)Nc3cccc(OC)c3)ccc21 (stereo not given)	inactive: 6.1%
CN(C)c1ccc(NC(=O)Cn2cc(S(=O)(=O)Cc3cccc(Cl)c3)c3ccccc32)cc1	inactive: 8.28%
Cc1nc2scc(C)n2c(=O)c1S(=O)(=O)N1CCN(c2cccc(C(F)(F)F)c2)CC1	inactive: -21.4%
Cc1ccc(-c2c(C(=O)Nc3ccccc3F)oc(=O)c3ccccc23)cc1	inactive: 1.68%
Cc1ccc(C)c(NC(=O)c2oc(=O)c3ccccc3c2-c2ccccc2)c1	inactive: 4.22%
Cc1cc2nc(-c3ccc(OCc4ccccc4F)cc3)cc(C(F)(F)F)n2n1	inactive: 25.2%
CCCc1nn2c(=O)cc(COC(=O)c3ccc4c(c3)OCO4)nc2s1	inactive: 26.6%
CCOC(=O)c1cccc(NC(=O)C2=C(C)C(=O)OC23CCCCC3)c1	inactive: 6.11%
Cc1ccc(C)c(N2CCN(C(=O)Cn3cnc4nc5c(cc4c3=O)CCCC5)CC2)c1	inactive: 4.16%
Cn1c(NCCN)nc2c1c(=O)n(Cc1ccccc1)c(=O)n2C	inactive: -23.7%
COc1cccc(C(=O)Nc2nc(-c3nnn(-c4cccc(Cl)c4C)c3C)ns2)c1	inactive: 29.6%
COc1ccc(NC(=O)Cn2c(=O)n(-c3ccc(OC)cc3)c(=O)c3sc4ccccc4c32)cc1	inactive: -1.34%
COc1ccc2c(CNCc3ccco3)c(C(=O)O)n(Cc3cccc(F)c3)c2c1	inactive: -8.07%
COc1ccc(CNc2ncnc3c2c(-c2ccccc2)cn3-c2ccc(C)c(Cl)c2)cc1	inactive: -2.2%
COc1cc(C(=O)Nc2cc(C)c(O)c(-c3nc4ccccc4s3)c2)cc(OC)c1OC	inactive: -8.59%
CCCN(CCC)C(=O)C1CCN(c2cc(C)nc3c(-c4ccc(Cl)cc4)c(C)nn23)CC1	inactive: 1.01%
COc1ccc(C(=O)Nc2ccc(-c3nc4ccccc4s3)c(Cl)c2)cc1Cl	inactive: -0.389%
